Over roughly 33,000 sequences, “E-score (-0.5 to 0.5)” has its median near -0.041; the highest 2% begin near 0.37. Some of the results follow.
The sequences below were run against T1, Ecm22 (UniProt Q05958) (assay: PBM E-score (8-mer binding enrichment) (E-score (-0.5 to 0.5)); higher = stronger / more preferred TF binding; most listed sequences are background and not binding sites). Details: protein concentration: 200 nM; construct: GST-full length.
T1 sequence: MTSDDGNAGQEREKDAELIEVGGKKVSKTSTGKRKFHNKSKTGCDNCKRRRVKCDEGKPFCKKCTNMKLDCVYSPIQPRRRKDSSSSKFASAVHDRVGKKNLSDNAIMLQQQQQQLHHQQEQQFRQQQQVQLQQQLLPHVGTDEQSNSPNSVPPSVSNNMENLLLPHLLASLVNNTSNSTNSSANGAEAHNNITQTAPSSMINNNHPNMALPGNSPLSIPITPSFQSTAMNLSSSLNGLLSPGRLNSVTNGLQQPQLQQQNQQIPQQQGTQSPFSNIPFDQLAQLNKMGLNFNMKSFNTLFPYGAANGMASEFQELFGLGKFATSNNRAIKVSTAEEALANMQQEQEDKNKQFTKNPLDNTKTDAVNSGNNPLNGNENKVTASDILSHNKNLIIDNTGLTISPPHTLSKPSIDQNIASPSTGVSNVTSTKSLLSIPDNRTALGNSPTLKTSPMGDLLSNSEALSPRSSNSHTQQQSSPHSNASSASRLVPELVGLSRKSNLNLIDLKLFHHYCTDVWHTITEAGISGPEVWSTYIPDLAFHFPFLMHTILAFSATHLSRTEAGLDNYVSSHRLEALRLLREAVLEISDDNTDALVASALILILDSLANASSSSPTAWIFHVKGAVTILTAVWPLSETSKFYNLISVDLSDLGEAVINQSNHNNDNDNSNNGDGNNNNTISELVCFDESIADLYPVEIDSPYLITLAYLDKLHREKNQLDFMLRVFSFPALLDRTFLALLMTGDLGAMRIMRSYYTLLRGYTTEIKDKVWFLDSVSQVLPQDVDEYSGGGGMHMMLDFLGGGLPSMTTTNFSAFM
How it was run: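 For each ungapped eight-base word taken together with its reverse complement, the Universal PBM Analysis Suite assigned an E-score. Binding data came from GST-tagged yeast transcription factors, applied at about 100-200 nM, on universal all-10-mer Agilent arrays made double-stranded by primer extension. Fluorescent anti-GST marked bound protein, and scans were normalised with masliner.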
GTTTATAA was tested, and the “PBM E-score” value was 0.232. For CATAGTCA, the “PBM E-score” value was -0.094. For CAAGATTG, the “PBM E-score” value was -0.135. In the case of CCTGCAGG, the “PBM E-score” value is reported as -0.352. In the case of ACCCGTGC, the “PBM E-score” value is reported as -0.055. With ATAACTAC the “PBM E-score” value was 0.0754. With AGAAGAGG the “PBM E-score” value was -0.145. In the case of CACCCCTC, the “PBM E-score” value is reported as -0.0795. In the case of AAACTTCA, the “PBM E-score” value is reported as 0.0121. In the case of ACATAAGT, the “PBM E-score” value is reported as -0.145. With GATTAAGC the “PBM E-score” value was 0.0332. For CTCCCCGA, the “PBM E-score” value was -0.0939. In the case of CAAATCTG, the “PBM E-score” value is reported as -0.221. In the case of AATTTAGC, the “PBM E-score” value is reported as -0.0245. For CACTACAA, the “PBM E-score” value was 0.0495. In the case of ACGCGACG, the “PBM E-score” value is reported as 0.291. With ACGGCGAT the “PBM E-score” value was 0.377. AAAGTTCT was tested, and the “PBM E-score” value was -0.105. AAAGACCG was tested, and the “PBM E-score” value was -0.101. GAAACTGA was tested, and the “PBM E-score” value was -0.0628. In the case of CCGACCTA, the “PBM E-score” value is reported as 0.0401. With ATCGAGAT the “PBM E-score” value was 0.0251. With GCACTCCC the “PBM E-score” value was -0.206. With CGCCTTGA the “PBM E-score” value was -0.145. In the case of TCGGTCAA, the “PBM E-score” value is reported as 0.257. With CGTCGCTA the “PBM E-score” value was 0.252. CGCAACTA was tested, and the “PBM E-score” value was 0.0567. For CCGTTCCA, the “PBM E-score” value was 0.373. For TCTGACAA, the “PBM E-score” value was -0.15. For AGCTATTA, the “PBM E-score” value was -0.21. For GAGCCTAA, the “PBM E-score” value was 0.0176. With ATAATTCA the “PBM E-score” value was 0.0687. With GAAGGCGC the “PBM E-score” value was -0.0899. TGCCGTAA was tested, and the “PBM E-score” value was 0.227. With CAAGAACC the “PBM E-score” value was -0.0263. With CGTTAACG the “PBM E-score” value was 0.26. In the case of ACAGTTAG, the “PBM E-score” value is reported as -0.184. In the case of AGAGTGTG, the “PBM E-score” value is reported as 0.115. ACACATAG was tested, and the “PBM E-score” value was -0.232. With GACTCGTA the “PBM E-score” value was 0.455. With CAATCCAG the “PBM E-score” value was -0.417. With CTTTACGC the “PBM E-score” value was 0.211. With CACTATGG the “PBM E-score” value was -0.0412. With AGCGTCAT the “PBM E-score” value was -0.0415. In the case of CAAAGCGG, the “PBM E-score” value is reported as -0.0992. For GCTCCACA, the “PBM E-score” value was -0.0705. For GAAAAAGC, the “PBM E-score” value was -0.00535. For ACGAAAAG, the “PBM E-score” value was 0.339. For CAACTGAC, the “PBM E-score” value was -0.154. For ATCACAAC, the “PBM E-score” value was -0.0429. For AGCGCCGA, the “PBM E-score” value was -0.0179. For AGAGCCTA, the “PBM E-score” value was -0.0789. In the case of TCTGCAAA, the “PBM E-score” value is reported as -0.0603. In the case of GTACATAC, the “PBM E-score” value is reported as 0.17. With AACACGTT the “PBM E-score” value was 0.0454. For GCAATAGA, the “PBM E-score” value was 0.165. With CTCCTTTA the “PBM E-score” value was -0.135. AAGAAATA was tested, and the “PBM E-score” value was 0.00355. In the case of ATGCTATA, the “PBM E-score” value is reported as -0.00026. With AAAGTAAA the “PBM E-score” value was -0.0722. AGAAAGTG was tested, and the “PBM E-score” value was -0.236. ATGAGTAA was tested, and the “PBM E-score” value was -0.0801. With ATTGCATC the “PBM E-score” value was 0.0349. CTTTTCCC was tested, and the “PBM E-score” value was 0.0866. In the case of GGGGCACC, the “PBM E-score” value is reported as -0.0334. ATACAATG was tested, and the “PBM E-score” value was -0.195. With AATGGGAA the “PBM E-score” value was -0.27. In the case of AACATGGC, the “PBM E-score” value is reported as -0.118. For CGGTGAAA, the “PBM E-score” value was 0.262. In the case of AAGAAGAT, the “PBM E-score” value is reported as -0.0912. For ATCCCCGA, the “PBM E-score” value was -0.101. With CAATAAGA the “PBM E-score” value was -0.137. With ACGGCTCT the “PBM E-score” value was 0.0583. In the case of ATACTTCA, the “PBM E-score” value is reported as -0.115. With ATCTTAAA the “PBM E-score” value was 0.0536. GAGCCCCC was tested, and the “PBM E-score” value was -0.138. With CCTTGCTA the “PBM E-score” value was -0.083. CAAGCGGA was tested, and the “PBM E-score” value was -0.136. AAAGGCAT was tested, and the “PBM E-score” value was -0.132. For CTGCGATC, the “PBM E-score” value was 0.0253. With AGCTGAGC the “PBM E-score” value was -0.1. In the case of GGAGGCGA, the “PBM E-score” value is reported as -0.153. For AATCCTTG, the “PBM E-score” value was -0.203. In the case of CCTCATTA, the “PBM E-score” value is reported as -0.131. With TCGCCAAA the “PBM E-score” value was 0.157. ATTTGCTG was tested, and the “PBM E-score” value was 0.0223.

Source: the supplement of paper PMC3334620
